Results reported in the supplement of paper PMC3334620.
Over roughly 33,000 sequences, “E-score (-0.5 to 0.5)” has its median near -0.016; the highest 2% begin near 0.32. Some of the results follow.

These sequences were tested against T1, Stp1 (UniProt B3LFK1) (assay: PBM E-score (8-mer binding enrichment) (E-score (-0.5 to 0.5)); higher = stronger / more preferred TF binding; most listed sequences are background and not binding sites). Conditions: protein concentration: 200 nM; construct: GST-full length.
T1 sequence: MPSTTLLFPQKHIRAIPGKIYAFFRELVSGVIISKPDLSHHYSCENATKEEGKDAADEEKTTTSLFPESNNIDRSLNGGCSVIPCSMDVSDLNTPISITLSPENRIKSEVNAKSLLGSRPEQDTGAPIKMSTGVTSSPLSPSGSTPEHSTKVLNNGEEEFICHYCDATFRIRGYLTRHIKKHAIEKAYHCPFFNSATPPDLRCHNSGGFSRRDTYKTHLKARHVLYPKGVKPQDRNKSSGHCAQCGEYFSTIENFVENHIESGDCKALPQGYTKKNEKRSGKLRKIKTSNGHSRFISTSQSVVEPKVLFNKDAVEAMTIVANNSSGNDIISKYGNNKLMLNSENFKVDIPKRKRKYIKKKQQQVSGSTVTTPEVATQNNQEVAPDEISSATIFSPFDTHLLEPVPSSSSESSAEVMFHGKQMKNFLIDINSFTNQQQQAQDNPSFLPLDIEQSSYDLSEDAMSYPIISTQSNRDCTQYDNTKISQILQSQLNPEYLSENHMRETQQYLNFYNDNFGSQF
In short: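 GST-tagged yeast TFs (full-length or DNA-binding domain) were made by PURExpress in vitro transcription/translation and applied at about 100-200 nM to universal all-10-mer Agilent arrays. The arrays were made double-stranded by primer extension, on fresh or once-stripped slides. Bound protein was detected with fluorescent anti-GST, and scans were normalised with masliner. Each ungapped eight-base word, pooled with its reverse complement, received an E-score (modified Wilcoxon-Mann-Whitney statistic) from the Universal PBM Analysis Suite.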

Compared with AAAATGGG, AGCCACTA is higher in “PBM E-score” value: -0.0484 for the first, 0.0379 for the second.

Going from CGGTCATC to CCACGACC, the “PBM E-score” value rises from -0.221 to -0.219.

First: GCTACATA
Second: AGCTACTC
The “PBM E-score” value of the first is higher: 0.0431 for the first, -0.262 for the second.

Compared with GAAGGTAA, CTCAGATC is lower in “PBM E-score” value: 0.184 for the first, -0.00315 for the second.

Compared with GAATCTCA, CCCCACGG is higher in “PBM E-score” value: -0.178 for the first, 0.102 for the second.

Compared with GGATTTAC, CTCTTCTA is lower in “PBM E-score” value: 0.172 for the first, 0.0839 for the second.

Compared with ACGTGCGG, ATATCCTA is lower in “PBM E-score” value: 0.357 for the first, 0.0646 for the second.

Compared with AAGAACTG, ACTAATGC is higher in “PBM E-score” value: 0.101 for the first, 0.21 for the second.

Compared with ACGCCGTC, AATCATTG is lower in “PBM E-score” value: 0.41 for the first, -0.118 for the second.

First: CTCAGACA
Second: TGTGGGAA
The “PBM E-score” value of the first is higher: 0.0994 for the first, -0.109 for the second.

Going from CCGACCTC to GGCGTCGA, the “PBM E-score” value rises from -0.311 to 0.306.

Going from ATCGTCCA to ATACGCAC, the “PBM E-score” value rises from -0.186 to 0.159.

Going from AGCCTGAT to CGTACACC, the “PBM E-score” value falls from -0.0416 to -0.0591.

Compared with GCCCCGAC, TACTGAAA is higher in “PBM E-score” value: -0.349 for the first, 0.282 for the second.

First: ACGGAGTA
Second: AGACATTG
The “PBM E-score” value of the first is higher: -0.0652 for the first, -0.194 for the second.

Going from AACCAGTT to AGCGCCGG, the “PBM E-score” value rises from 0.143 to 0.174.

Compared with GGCTAAGA, GGTGATCA is higher in “PBM E-score” value: -0.0906 for the first, -0.0543 for the second.

Going from CAGGCTCA to GGTTATGA, the “PBM E-score” value rises from 0.00607 to 0.0343.

First: AAGCTCCC
Second: TATTATAA
The “PBM E-score” value of the first is lower: -0.284 for the first, 0.0956 for the second.

Going from ACGTACAC to AGATGTCA, the “PBM E-score” value falls from 0.0509 to -0.0926.

Going from AGCCTCGG to AAAGGGCT, the “PBM E-score” value falls from -0.0283 to -0.0542.

Going from ACGCGCGT to GCAGTTGA, the “PBM E-score” value falls from 0.186 to 0.0711.

First: CCCCAGCA
Second: AACTGCCC
The “PBM E-score” value of the first is lower: -0.326 for the first, -0.192 for the second.

First: TACCAAGA
Second: ATGTCGGC
The “PBM E-score” value of the first is higher: 0.0709 for the first, -0.0688 for the second.

First: ACAGTTTC
Second: AGGCCACT
The “PBM E-score” value of the first is higher: 0.063 for the first, -0.0843 for the second.

Going from TCGCAGAA to AATAGTCT, the “PBM E-score” value falls from -0.046 to -0.101.

Compared with TACACCAA, AAGAGCCC is higher in “PBM E-score” value: -0.0511 for the first, -0.0153 for the second.

First: CCACAGGA
Second: CCAAAACG
The “PBM E-score” value of the first is lower: -0.0282 for the first, 0.107 for the second.

First: ACTTCAAT
Second: ATTGTTGC
The “PBM E-score” value of the first is lower: 0.119 for the first, 0.153 for the second.

First: AGTCCAAA
Second: ATTCCCTA
The “PBM E-score” value of the first is lower: 0.0426 for the first, 0.0472 for the second.

Compared with CCTTTTCA, AAGCGCCA is higher in “PBM E-score” value: -0.0257 for the first, 0.0796 for the second.

Compared with CTGGCGTC, CACCCGAC is higher in “PBM E-score” value: -0.144 for the first, -0.0916 for the second.

Going from CGGATATA to CTTTGGAA, the “PBM E-score” value falls from 0.29 to 0.026.

Compared with CTACAATC, ATCGCGTG is lower in “PBM E-score” value: 0.161 for the first, 0.0349 for the second.

First: CAATACAG
Second: CCGACAGG
The “PBM E-score” value of the first is higher: -0.0422 for the first, -0.13 for the second.

Compared with AAATTCGC, CGCTGCTC is lower in “PBM E-score” value: 0.117 for the first, -0.111 for the second.

First: CCTTAATC
Second: TAAACAAA
The “PBM E-score” value of the first is lower: -0.0629 for the first, 0.154 for the second.

Compared with CGGCTTGA, CAACGCCC is higher in “PBM E-score” value: 0.0356 for the first, 0.0959 for the second.

Going from CACCTCTA to CTGTTAAC, the “PBM E-score” value rises from -0.0826 to 0.14.

First: ACTTAAAG
Second: ACCACCCC
The “PBM E-score” value of the first is higher: -0.176 for the first, -0.249 for the second.

First: AATGTTAT
Second: CCTTACCA
The “PBM E-score” value of the first is higher: 0.0148 for the first, -0.0761 for the second.

First: CCAGCACC
Second: AGGCTACA
The “PBM E-score” value of the first is lower: -0.269 for the first, -0.172 for the second.

Going from ACTCTCAA to CAGGGCCC, the “PBM E-score” value falls from -0.143 to -0.194.

Compared with CGTATTTA, GGCCAGTA is lower in “PBM E-score” value: 0.232 for the first, -0.0609 for the second.

Compared with AGATCCCG, AAGGTTAG is lower in “PBM E-score” value: 0.0532 for the first, -0.217 for the second.

First: CGATCAGC
Second: ATGAGGGC
The “PBM E-score” value of the first is higher: -0.0192 for the first, -0.122 for the second.

Compared with GGACCTCA, GCTTCAAA is higher in “PBM E-score” value: -0.179 for the first, 0.187 for the second.

Compared with AACGTGCC, GGCACTGA is higher in “PBM E-score” value: 0.286 for the first, 0.312 for the second.

Going from AGCTTCTG to CTAACTTC, the “PBM E-score” value rises from -0.133 to 0.00261.

Compared with AGAACATC, AATGTGCG is higher in “PBM E-score” value: -0.0712 for the first, 0.18 for the second.

Compared with ACAAAGGC, GAAATTCA is higher in “PBM E-score” value: -0.0179 for the first, 0.108 for the second.

First: ACTGATTC
Second: CACGTGCA
The “PBM E-score” value of the first is lower: 0.0186 for the first, 0.14 for the second.

Compared with CTTAGCAA, CCGCAAGC is lower in “PBM E-score” value: 0.0573 for the first, -0.0825 for the second.

Compared with GTCGCGAC, AACCTATG is lower in “PBM E-score” value: 0.299 for the first, 0.053 for the second.

First: CGGTAAGC
Second: AGCTTAAA
The “PBM E-score” value of the first is lower: -0.134 for the first, 0.00683 for the second.

Going from GGGCTACA to TGCGGACA, the “PBM E-score” value rises from -0.0511 to 0.281.

Compared with ACTCAAGT, AGTGTAGG is lower in “PBM E-score” value: 0.00487 for the first, -0.0236 for the second.

First: AGATTTTG
Second: CACAGAGC
The “PBM E-score” value of the first is lower: 0.0695 for the first, 0.0781 for the second.

First: GACATAAC
Second: CACCCGCA
The “PBM E-score” value of the first is higher: 0.0645 for the first, -0.164 for the second.

First: AACAACAT
Second: GCGCTTAC
The “PBM E-score” value of the first is lower: -0.00072 for the first, 0.0962 for the second.

First: ACAGGGAC
Second: CTCCGTGC
The “PBM E-score” value of the first is lower: -0.166 for the first, 0.228 for the second.

Going from ACACTATA to CATGAGGC, the “PBM E-score” value rises from 0.0726 to 0.185.

First: GTCTATAA
Second: AGCTCCAT
The “PBM E-score” value of the first is higher: 0.0442 for the first, -0.202 for the second.

Going from GGTATATA to CTTATCGA, the “PBM E-score” value falls from 0.142 to 0.0995.

First: TAAACCCA
Second: ATCAACAG
The “PBM E-score” value of the first is lower: -0.14 for the first, 0.143 for the second.

Going from AGATAGAA to ACAAATCG, the “PBM E-score” value rises from 0.0271 to 0.0375.

Compared with AGCATATG, ATTGGGGC is higher in “PBM E-score” value: -0.117 for the first, -0.0829 for the second.

Compared with AAGGCCCG, AAGATAGG is lower in “PBM E-score” value: -0.146 for the first, -0.292 for the second.

Going from AAGAGCGT to GCTACGCA, the “PBM E-score” value falls from 0.00991 to -0.0274.

Compared with ATTCACAC, GCTTCTGA is lower in “PBM E-score” value: 0.19 for the first, 0.0764 for the second.

First: GGAACTTA
Second: AGACATGA
The “PBM E-score” value of the first is higher: -0.0446 for the first, -0.0781 for the second.

First: GAGTCAGC
Second: CCTAGGAC
The “PBM E-score” value of the first is higher: -0.189 for the first, -0.242 for the second.

Compared with CCCCTCAC, GCGATGCC is higher in “PBM E-score” value: -0.287 for the first, 0.319 for the second.

First: GTGAGCAA
Second: TGCTTCCA
The “PBM E-score” value of the first is higher: -0.0385 for the first, -0.184 for the second.

Compared with AGGGCCAG, ACTGCAGT is higher in “PBM E-score” value: -0.133 for the first, -0.0716 for the second.

First: CTTCTGGA
Second: AGAATTCA
The “PBM E-score” value of the first is lower: 0.0387 for the first, 0.105 for the second.

Compared with GGCCTCCC, ACTCCCAT is higher in “PBM E-score” value: -0.301 for the first, -0.0172 for the second.

First: CCGGGACG
Second: CATCTCCA
The “PBM E-score” value of the first is lower: -0.25 for the first, -0.188 for the second.

First: TTATACAA
Second: ATTGACTG
The “PBM E-score” value of the first is higher: 0.25 for the first, -0.0974 for the second.

Compared with ATTTTCGG, CGCTGTAA is higher in “PBM E-score” value: 0.076 for the first, 0.0911 for the second.

First: ACGAACAT
Second: ACACATTG
The “PBM E-score” value of the first is lower: -0.00251 for the first, 0.0337 for the second.

Going from CAATAGCG to CTATTAAC, the “PBM E-score” value rises from 0.00407 to 0.0772.

First: AGCCCTAC
Second: GTGTTGCA
The “PBM E-score” value of the first is lower: 0.0199 for the first, 0.127 for the second.

Going from GACATGCC to AGAAATCT, the “PBM E-score” value rises from 0.0796 to 0.197.

Compared with GTCATCTA, ATAAGGAA is lower in “PBM E-score” value: 0.0354 for the first, 0.00857 for the second.

Going from GGGATTAA to ACAGGAGA, the “PBM E-score” value rises from -0.0865 to -0.035.
